These results are taken from the supplement of paper PMC4723716.

± gives the uncertainty stated by the source. Whole data set: some 9,900 compounds, median “viability index relative to DMSO control” near 1, cut for the lowest 2% near 0.85. The list shows a part of the results.

The subject of this assay is Plasmodium falciparum NF54 stage V gametocytes. Put plainly: viability index relative to DMSO control (fraction); higher = less gametocyte killing. To be noted: 2.5 µM, library set: Broad Institute DOS, incubation time: 72 h. On the procedure:
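Broad DOS informer set and blood-stage-active DOS compounds screened in duplicate at 2.5 µM against P. falciparum NF54 stage V gametocytes with the serum-free one-step SaLSSA (1536-well): 72 h at 37 °C under low oxygen, then saponin lysis and MitoTracker Red CMXRos staining, with high-content imaging. Viability index = viable-object count divided by the plate mean of DMSO wells (0 = killed, about 1 = inactive).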
As to `CCC(=O)N1C[C@@H](C)[C@H](OC)CN(C)C(=O)c2cc(NC(=O)Nc3ccc(Cl)cc3)ccc2OC[C@H]1C`, the viability index was 1.06 ± 0.02.
Regarding `Cc1noc(C)c1NC(=O)Nc1ccc2c(c1)C(=O)N([C@@H](C)CO)C[C@H](C)[C@@H](CN(C)S(=O)(=O)c1cccs1)OCCCC[C@@H](C)O2`, the viability index is 1.07 ± 0.055.
Regarding `Cc1ccccc1-c1ccc2c(c1)O[C@@H](CN(C)C(=O)Nc1ccc(C(F)(F)F)cc1)[C@H](C)CN([C@@H](C)CO)S2(=O)=O`, the viability index was determined as 1.09 ± 0.078.
`CN1[C@@H](CO)[C@@H]2c3ccccc3N(C(=O)Nc3cc(F)ccc3F)C[C@@H]21` yielded a viability index of 1.04 ± 0.091.
On to `CS(=O)(=O)N1CC(=O)N2[C@H](C1)[C@@H](c1ccc(C#CCC3CCCC3)cc1)[C@@H]2CO`, for which the viability index worked out at 0.98 ± 0.14.
For the compound `O=S(=O)(c1cccc(F)c1)N1CC[C@@H]2[C@H](CO)Nc3ccc(Br)cc3[C@@H]21`, the viability index was determined as 1.09 ± 0.023.
The same measure for `CCS(=O)(=O)N1Cc2cc(C(=O)NCCOC)nc(-c3cccc(-c4ccncc4)c3)c2[C@@H]1CCO`: 1 ± 0.031.
`C[C@@H]1CCCCO[C@H](CN(C)CC2CCCCC2)[C@H](C)CN([C@@H](C)CO)C(=O)c2cc(NC(=O)Nc3ccc(C(F)(F)F)cc3)ccc2O1` showed a viability index of 0.935 ± 0.038.
On to `O=C(NC1CCC1)[C@@H]1[C@@H](CO)[C@@H]2Cn3c(ccc(-c4ccncc4)c3=O)[C@H]1N2Cc1cocn1`, for which the viability index is 1.04 ± 0.083.
`CN(C)C(=O)c1ccc(-c2ccc3c(c2)[C@@H]2[C@@H](CCN2C(=O)C2CCCC2)[C@H](CO)N3C)cc1` showed a viability index of 0.945 ± 0.058.
With `CNC[C@@H]1OCc2cnnn2CCCC(=O)N([C@H](C)CO)C[C@H]1C`, the viability index was found to be 1.0046 ± 0.00089.
As to `CNC[C@@H]1OCCCC[C@H](C)Oc2ccc(NS(=O)(=O)c3ccc(F)cc3)cc2C(=O)N([C@@H](C)CO)C[C@@H]1C`, the viability index turned out to be 1.12 ± 0.061.
Compound `N#C[C@H]1[C@@H](c2ccccc2C2=CCCCC2)[C@H](CO)N1C(=O)c1ccccn1` had a viability index of 1.08 ± 0.13.
Regarding `C[C@@H]1CC(=O)N[C@H](c2ccccc2)C/C=C\C[C@H](c2ccccc2)NC1=O`, the viability index is 0.936 ± 0.041.
Compound `COc1ccc(C(=O)N2C[C@@H]3[C@H](c4ccccc42)[C@H](CO)N3C(=O)NC(C)C)cc1` had a viability index of 1.02 ± 0.027.
Take `COc1cccc(-c2ccc3c(c2)O[C@@H](CN(C)Cc2cccnc2)[C@H](C)CN([C@H](C)CO)S3(=O)=O)c1`: the viability index came to 1.02 ± 0.013.
`CCC(=O)N1C[C@@H](O)COC[C@H]2O[C@H](CC(=O)NCc3ccc(Oc4ccccc4)cc3)CC[C@@H]21`: the viability index is 0.987 ± 0.031.
As to `O=C(C[C@@H]1CC[C@@H](NC(=O)CN2CCOCC2)[C@@H](CO)O1)NC1CCC1`, the viability index was found to be 1.09 ± 0.067.
For the compound `O=C(C[C@@H]1C[C@@H]2c3cc(NC(=O)C4CCOCC4)ccc3O[C@@H]2[C@H](CO)O1)NCCN1CCCCC1`, the viability index turned out to be 0.989 ± 0.056.
In turn, `CN(C)CC(=O)N1[C@@H](C#N)[C@@H](c2ccc(-c3cccc(C(=O)N(C)C)c3)cc2)[C@@H]1CO` showed a viability index of 1.07 ± 0.023.
The same measure for `Cc1noc(C)c1NC(=O)Nc1cccc2c1O[C@@H](CN(C)Cc1ccc(C(=O)Nc3ccccc3N)cc1)[C@@H](C)CN([C@H](C)CO)C2=O`: 0.99 ± 0.16.
With `COc1ccc2c3c([C@@H](CO)N(C[C@]33CN(Cc4ccccc4F)C3)C(=O)Nc3ccc(F)cc3)n(C)c2c1`, the viability index stood at 0.791 ± 0.066.
Take `CO[C@H](CN(C)Cc1ccc(-c2ccccn2)cc1)[C@H](C)CN(C(=O)Nc1ccc(F)cc1)[C@@H](C)CO`: the viability index turned out to be 1.12 ± 0.084.
In turn, `CO[C@H]1CN(C)C(=O)c2ccc(NS(C)(=O)=O)cc2OC[C@H](C)N(CC2CC2)C[C@@H]1C` registered a viability index of 1.03 ± 0.087.
Regarding `COc1cccc(S(=O)(=O)N(C)C[C@@H]2OCc3ccccc3-c3c(n(C)c4ccccc34)C(=O)N([C@@H](C)CO)C[C@H]2C)c1`, the viability index is 0.977 ± 0.016.
The result for `CO[C@@H]1CC[C@H]2CCN(C)C(=O)[C@H](C)CN(C)C(=O)c3cc(C#N)ccc3OC[C@H]1O2` reads 1.1 ± 0.08.
The same measure for `COCC(=O)NC[C@@H]1[C@@H](c2ccccc2)[C@H](CO)N1C(=O)c1ccccc1`: 0.9794 ± 0.0038; for `Cc1noc(C)c1NC(=O)Nc1ccc2c(c1)CC(=O)N([C@@H](C)CO)C[C@H](C)[C@@H](CN(C)Cc1ccc(C(F)(F)F)cc1)O2`: 0.967 ± 0.12.
With `COc1cccc(NC(=O)N2CC3(C2)[C@@H](c2ccccc2)[C@@H](CO)N3C(C)=O)c1`, the viability index worked out at 1.1 ± 0.12.
The same measure for `CN(C)CC(=O)N1[C@H](C#N)[C@H](c2ccc(-c3cccc(C(=O)N(C)C)c3)cc2)[C@@H]1CO`: 1.133 ± 0.0056.
`COc1ccccc1-c1cn(CC[C@H]2CC[C@H](NC(=O)C3CCCCC3)[C@@H](CO)O2)nn1` yielded a viability index of 0.997 ± 0.11.
The same measure for `Cc1noc(C)c1NC(=O)N1C[C@H](O)COC[C@@H]2O[C@H](CC(=O)NCC3CC3)CC[C@H]21`: 1.06 ± 0.093.
The compound `CCCNC(=O)N1[C@@H](C#N)[C@H](c2ccc(C#Cc3cccc(F)c3)cc2)[C@@H]1CO` returned a viability index of 1.05 ± 0.073.
The result for `N#Cc1cccc(-c2ccc([C@H]3[C@@H]4CN(C(=O)c5ccc6c(c5)OCO6)C[C@H]3N4)cc2)c1` reads 1.09 ± 0.072.
Turning to `O=C(Cc1ccccn1)N1[C@H](CO)[C@@H]2c3ccccc3NC[C@@H]21`, the viability index stood at 1 ± 0.038.
As to `COc1ccc(S(=O)(=O)Nc2ccc3c(c2)C(=O)N([C@H](C)CO)C[C@H](C)[C@H](CN(C)Cc2ccc(C(F)(F)F)cc2)OCCCC[C@H](C)O3)cc1`, the viability index was determined as 0.929 ± 0.16.
For `CCCC(=O)Nc1ccc2c(c1)OC[C@H](C)N(CC1CCOCC1)C[C@H](C)[C@@H](OC)CN(C)C2=O`, the viability index was found to be 1.07 ± 0.012.
In turn, `C[C@@H]1CN([C@H](C)CO)C(=O)c2cc(NC(=O)Cc3ccccc3)ccc2O[C@@H](C)CCCCO[C@H]1CN(C)Cc1ccncc1` gave a viability index of 1.112 ± 0.011.
Take `COc1ccc(C(=O)Nc2ccc3c(c2)C(=O)N(C)[C@H]2CC[C@H](CC(=O)NCC4CC4)O[C@@H]2CO3)cc1`: the viability index turned out to be 0.987 ± 0.052.
On to `C[C@@H]1CCCCO[C@@H](CN(C)C(=O)Nc2ccc3c(c2)OCO3)[C@H](C)CN([C@H](C)CO)C(=O)c2cc(NS(=O)(=O)c3ccc(F)cc3)ccc2O1`, for which the viability index was determined as 1.1 ± 0.13.
As for `C[C@H](CO)N1C[C@H](C)[C@@H](CN(C)Cc2ccc(C(F)(F)F)cc2)OCCCC[C@H](C)Oc2ccc(NC(=O)Nc3cccc4ccccc34)cc2C1=O`, the viability index came out at 1.117 ± 0.0064.
The result for `CC(C)[C@H]1COCn2nncc2CC[C@H](C)C(=O)N1` reads 1.09 ± 0.028; that for `CCCN1C[C@H](C)[C@@H](OC)CN(C)C(=O)c2cc(NC(=O)C3CCC3)ccc2OC[C@H]1C`, 1.066 ± 0.0069; that for `CO[C@H]1CN(C)C(=O)c2ccc(NC(=O)NC(C)C)cc2OC[C@H](C)N(Cc2ccc(-c3ccccn3)cc2)C[C@@H]1C`, 1.06 ± 0.057.
`N#C[C@H]1N[C@H](CO)[C@@H]1c1ccc(-c2cccc(F)c2)cc1`: the viability index is 1.07 ± 0.051.
On to `COc1ccc(NC(=O)N(C)C[C@H]2Oc3ccc(NC(=O)Nc4cccc5ccccc45)cc3CC(=O)N([C@H](C)CO)C[C@@H]2C)cc1`, for which the viability index was 0.968 ± 0.027.
With `C[C@H]1CN([C@@H](C)CO)C(=O)c2cccc(NC(=O)Nc3ccc4c(c3)OCO4)c2O[C@H]1CN(C)S(C)(=O)=O`, the viability index worked out at 0.999 ± 0.083.
The result for `COc1cccc(-c2ccc([C@@H]3[C@H](CO)N4C(=O)CN(C(=O)c5cccnc5)C[C@@H]34)cc2)c1` reads 1.08 ± 0.073.
For `CCS(=O)(=O)N1CC[C@@]2(CC1)CN([C@H](CO)c1c2c2ccc(OC)cc2n1C)C(=O)c1cccc(F)c1`, the viability index was determined as 0.9881 ± 0.0058.
`CN1CCCCN2[C@H](C1)[C@@H](c1ccc(-c3ccc(F)cc3)cc1)[C@@H]2CO` returned a viability index of 0.961 ± 0.016.
In turn, `COc1cccc(C(=O)Nc2ccc3c(c2)C(=O)N(C)[C@@H]2CC[C@@H](CC(=O)NCc4ccc(F)cc4)O[C@H]2CO3)c1` came in with a viability index of 1.17 ± 0.067.
With `CC(C)NC(=O)N1[C@H](CNC(=O)CN(C)C)[C@H](c2ccccc2)[C@@H]1CO`, the viability index came out at 0.932 ± 0.075.
As to `CCC(=O)N1C[C@H](C)[C@H](OC)CN(C)C(=O)c2cc(NC(=O)Nc3ccc(Cl)cc3)ccc2OC[C@@H]1C`, the viability index amounted to 1.05 ± 0.012.
The result for `CCCC#Cc1cnc2c(c1)C(=O)N([C@@H](C)CO)C[C@H](C)[C@@H](CN(C)C(=O)Nc1cc(F)ccc1F)O2` reads 1.15 ± 0.088; that for `CN1c2ccc(-c3ccc(F)cc3)cc2[C@@H]2[C@@H](CCN2C(=O)Cc2cccnc2)[C@@H]1CO`, 1.09 ± 0.061; that for `C[C@H]1CN([C@@H](C)CO)C(=O)Cc2cc(NS(=O)(=O)c3cn(C)cn3)ccc2O[C@@H]1CN(C)Cc1ccc2c(c1)OCO2`, 1.08 ± 0.025.
Regarding `CCCC(=O)Nc1ccc2c(c1)OC[C@H](C)NC[C@H](C)[C@H](OC)CN(C)C2=O`, the viability index was determined as 1.04 ± 0.032.
`COc1ccccc1S(=O)(=O)N[C@@H]1C=C[C@H](CC(=O)N2CCOCC2)O[C@H]1CO` came in with a viability index of 1.12 ± 0.097.
Compound `CN1C(=O)c2cc(NC(=O)Cc3cccs3)ccc2OC[C@@H]2O[C@@H](CC(=O)NCCc3ccncc3)CC[C@H]21` registered a viability index of 1.06 ± 0.017.
`COc1ccc(S(=O)(=O)Nc2ccc3c(c2)CC(=O)N([C@H](C)CO)C[C@H](C)[C@H](CN(C)C(=O)Nc2c(C)noc2C)O3)cc1` returned a viability index of 1.01 ± 0.063.
The result for `CCC(=O)Nc1ccc2c(c1)C(=O)N(C)C[C@H](OC)[C@@H](C)CN(Cc1nccs1)[C@H](C)CO2` reads 1.072 ± 0.0019.
As for `CN(C[C@@H]1[C@@H](c2ccccc2)[C@@H](CO)N1Cc1ccccn1)S(C)(=O)=O`, the viability index is 1.03 ± 0.018.
Consider `COc1ccc(S(=O)(=O)Nc2ccc3c(c2)C(=O)N([C@@H](C)CO)C[C@H](C)[C@H](CN(C)Cc2ccc(C(F)(F)F)cc2)OCCCC[C@H](C)O3)cc1`, for which the viability index amounted to 0.987 ± 0.16.
With `CCCNC(=O)N1CC[C@@]2(CC1)CN(Cc1cccc(OC)c1)[C@H](CO)c1[nH]c3cc(OC)ccc3c21`, the viability index was determined as 1.08 ± 0.065.
With `CCC(=O)N1[C@@H](CO)[C@@H](c2ccccc2)C12CN(Cc1ccccc1Cl)C2`, the viability index amounted to 1.1 ± 0.028.
As for `O=C(Cc1cccnc1)N1[C@H](CNCC2CCC2)[C@H](c2ccccc2)[C@@H]1CO`, the viability index was found to be 1.01 ± 0.043.
In turn, `O=S(=O)(c1cccc(Cl)c1)N1[C@@H]2CNC[C@H]1[C@@H]2c1ccc(-c2cccnc2)cc1` yielded a viability index of 1.125 ± 0.002.
The same measure for `CO[C@@H]1CC[C@H]2CCN(C)C(=O)[C@H](C)CN(C)C(=O)c3cc(C#N)ccc3OC[C@@H]1O2`: 0.973 ± 0.056; for `O=C(Cc1ccncc1)N1CC(=O)N2[C@H](CO)[C@H](c3ccc(Br)cc3)[C@@H]2C1`: 1.1 ± 0.089.
